# Results: PubChem BioAssay AID897 (National Center for Advancing Translational Sciences (NCATS), 2007)
# The list shows a part of the results. These are further read-outs of the screen, such as a control signal, another cell line or another target. No call is given for them. The list favours compounds with an active or inconclusive main result. Potencies come from curve fits of mixed quality, noted in brackets.
# Biological target: Caspase-7 (Homo sapiens) (UniProt P55210)
# Assay: Confirmation Concentration-Response Assay for Allosteric/Competitive Inhibitors of Caspase-7
# Conditions: recombinant caspase-7, fluorogenic substrate cleavage; measured here: rate read AC50
# From the text: NIH Molecular Libraries Screening Centers Network [MLSCN]
# NIH Chemical Genomics Center [NCGC]
# PI Name: Dr. James Wells,
# Dr. Enrique Perez-Paya, Dr.Janice Williams, Dr. Dennis Wolan, a person
# The caspases (Cysteine Aspartyl Protease) comprise a related family of 14 dimeric proteases that are critical mediators of apoptosis (programmed cell death) and inflammation. The caspases represent an important class of drug targets for stroke, ischemia, cancer and inflammatory diseases. […] One goal of this project was to identify compounds that act as allosteric inhibitors via stabilizing the procaspase form of the enzyme. Previous work in Well's laboratory has shown that such allosteric inhibitors can be identified and these act by binding at the dimer interface of enzyme (Hardy, Lam et al., 2004).
# The biochemical assay was configured using purified caspase 7 at a high enzyme concentration to promote formation of the homodimers and thus facilitate the identification of allosteric inhibitors. The overall goal was to identify reversible inhibitors with better drug-like properties than the currently available set of aspartyl-containing peptidomimetics that covalently bind the active site. Caspase 7 was assayed using the profluorescent substrate Ac-DEVD-AFC. After initiation of the assay with substrate the plates were rapidly read using an automated robotic system (Kalypsys, Inc.) to maintain consistent timing. A kinetic mode of detection was used where the initial rate was collected (estimated final product formation was ~10%). Compounds were screened as a concentration-titration series that ranged from 57 uM to 0.7 nM. Below is the protocol used for caspase 7.
# NCGC Assay Protocol Summary:
# Caspase 7 was prepared in buffer (50 mM HEPES pH 7.5, 50 mM KCl, 200 mM NaCl, 10 mM DTT, 0.1% CHAPS) at a concentration of 66.6 nM and 3 uL was dispensed to all wells using black solid Kalypsys 1536-well plates. 20 nL of DMSO containing compounds was added using a pin-tool (Kalypsys Inc.) to columns 5-48. Then 20 nL of DMSO solution from a control plate was added to columns 1-4. Controls were: Column 1, 16 point titration with each concentration in duplicate (1:1 dilutions in DMSO; final starting concentration was 57 uM) of the caspase 7 inhibitor Ac-DEVD-CHO (Alexis Biochemicals); Column 2, a 16 point titration with each concentration in duplicate of the free AFC fluorophore prepared in DMSO (Alexis Biochemicals), final starting was 40 uM; Column 3 neutral (DMSO only) control; Column 4: DMSO alone, to serve as a negative control (no substrate was added). Then 1 uL of 20 uM the substrate Ac-DEVD-CHO (Alexis Biochemicals) prepared in the same buffer was dispensed to all wells except columns 2 and 4 and the plates were immediately transferred (< 1 min) to the Viewlux. The plates were then exposed using 405 nm excitation/520 nm emission filters for 4 sec and read at 20 sec intervals for 3 min. Final enzyme concentration was 50 nM and the final substrate concentration was 5 uM.
# Concentration-response curves were fitted to the data calculated from slope of the linear regression of fluorescent intensity versus time (the rate). The concentration-effect curves were then classified based on curve quality (r2), response magnitude and degree of measured activity. […] Inconclusive compounds had appreciable concentration-dependent effects on both the measured rate and the interpolated basal fluorescence intensity at the start of the reaction but where the basal fluorescent intensity was marginal (e.g. < 10-fold). Inconclusive compounds also encompass highly fluorescent compounds (>100-fold increases in fluorescent intensities values relative to controls) where artificial concentration-dependent decreases in the rate occurred at high compound concentrations due to fluorescent interferences.
# Keywords: Caspase 7, proteases, profluorescent, MLSMR, MLSCN, NIH Roadmap, qHTS, NCGC
# Chain of UniProt P55210 (P55210 whole entry, looked up): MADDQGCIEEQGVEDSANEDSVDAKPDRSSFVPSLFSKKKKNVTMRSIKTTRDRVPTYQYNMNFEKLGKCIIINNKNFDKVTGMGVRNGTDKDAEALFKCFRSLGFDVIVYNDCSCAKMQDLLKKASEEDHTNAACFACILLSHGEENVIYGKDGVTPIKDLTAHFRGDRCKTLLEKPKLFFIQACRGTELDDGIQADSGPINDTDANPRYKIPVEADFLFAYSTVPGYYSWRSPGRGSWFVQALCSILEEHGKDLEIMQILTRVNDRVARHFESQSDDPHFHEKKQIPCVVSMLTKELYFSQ
row,SMILES,AC50
1,Cc1ccc(N2C(=O)[C@@H]3[C@H](C2=O)C2c4ccccc4C=CN2[C@@H]3C(=O)c2ccco2)c(C)c1 (stereo partly drawn),"31.6 µM [falling, partial curve]"
2,COc1cc2c(cc1OC)CN(C(=O)CSc1nc3[nH]ncc3c(=O)n1-c1ccccc1)CC2,"15.8 µM [falling, partial curve]"
3,O=C(COC(=O)c1cc(-c2ccco2)nc2ccccc12)NCc1ccc2c(c1)OCO2,"31.6 µM [falling, single point]"
4,O=C(c1ccc(Cl)c(Cl)c1)N(Cc1ccco1)c1ccc(O)cc1,"12.6 µM [falling, full curve]"
5,COc1cc2c(C=O)c3c4c(cc(OC)c(OC)c4c2cc1OC)CCN3C,"20 µM [falling, partial curve]"
6,O=C1Cc2ccccc2C(=O)N1CCc1ccccc1,"10 µM [falling, full curve]"
7,Cc1cc(C)cc(C(=O)N(C)[C@H](Cc2ccc(-c3ccccc3)cc2)C(=O)N[C@@H](Cc2c[nH]c3ccccc23)C(=O)O)c1,"15.8 µM [falling, full curve]"
8,CC1(C)C(=O)NC2=C1C(=O)C(=O)c1ccccc12,"10 µM [falling, full curve]"
9,CCCCCCC(=O)N1CCC(c2nc3c(nnn3Cc3ccccc3Cl)c(=O)[nH]2)CC1,"3.98 µM [falling, full curve]"
10,N#CC1=C(N)Oc2cc(O)ccc2C1C1CCCCC1 (stereo not drawn),"25.1 µM [falling, partial curve]"
11,Cc1ccc(NC(=O)N2CCC(c3nc4c(nnn4Cc4cccc(Cl)c4)c(=O)[nH]3)CC2)cc1,"12.6 µM [falling, full curve]"
12,COc1ccc(Cn2c(=O)[nH]c3cc(C(=O)N4CCN(Cc5ccccc5)CC4)ccc3c2=O)cc1,"15.8 µM [falling, full curve]"
13,O=C1C(Cl)=C(NCCN2CCOCC2)C(=O)c2ncccc21,"3.16 µM [falling, full curve]"
